The results in this text go back to patent US20250171518A1, “METHODS FOR PREPARING CELLS FOR ADOPTIVE T CELL THERAPY” (City of Hope, priority 2015, published 2025).

The assay deals with CD8+ CD19CAR T cells. The assay can be described thus: 107a degranulation assay / effector function after co-culture with CD19+ LCL cells. The format is cell-based, human. The settings on record: expanded 21 days with or without Akt inhibitor; overnight co-culture with CD19+ LCL; treated versus untreated cells; FIG. 2.

Regarding `O=c1[nH]c2ccccc2n1C1CCN(Cc2ccc(-c3nc4cc5[nH]cnc5cc4nc3-c3ccccc3)cc2)CC1` [Akt inhibitor VIII, 1,3-dihydro-1-[1-[[4-(6-phenyl-1H-imidazo[4,5-g]quinoxalin-7-yl)phenyl]methyl]-4-piperidinyl]-2H-benzimidazol-2-one], the “interferon gamma production and CD107a expression upon CD19 antigen stimulation” value is on record as “equivalent levels”.
